For one assay, the system named is HSkMC. The assay can be described thus: cytotoxicity call (relative viability < 0.9). The following applies: 10 µM.
In the next assay the test system is S. aureus RN4220. The assay can be described thus: growth inhibition call (relative growth <= 0.2). Particulars: 50 µM.

These results are taken from the antibiotic and cytotoxicity screens of Wong et al. (2023).

The other results are listed elsewhere or left out.

Turning to `COc1cccc(S(=O)(=O)N(C)C[C@@H]2Oc3cc(C4=CCCC4)ccc3S(=O)(=O)N([C@H](C)CO)C[C@@H]2C)c1`, the cytotoxicity call with HSkMC is “inactive”. For the same compound, the growth inhibition call in the assay on S. aureus RN4220 was “inactive”.
Turning to `C[C@H]1CN([C@@H](C)CO)C(=O)c2cccc(NC(=O)c3ccncc3)c2O[C@H]1CN(C)Cc1ccncc1`, the cytotoxicity call in the assay with HSkMC was “inactive”. Also, the growth inhibition call with S. aureus RN4220 was “inactive”.
With `CN1C(=O)c2cc(NC(=O)c3cccs3)ccc2OC[C@H]2O[C@@H](CC(=O)NCCN3CCCCC3)CC[C@@H]21`, the cytotoxicity call in the assay with HSkMC was “inactive”. Further, the growth inhibition call in the assay on S. aureus RN4220 is “inactive”.
On to `Nc1nc(Cl)nc2c1ncn2[C@@H]1O[C@H](CO)[C@@H](O)[C@H]1O`, for which the cytotoxicity call in the assay with HSkMC was “inactive”. Also, the growth inhibition call in the assay on S. aureus RN4220 was “inactive”.
`C[C@@H]1CN([C@H](C)CO)C(=O)Cc2cc(NC(=O)Nc3cccc4ccccc34)ccc2O[C@H]1CN(C)Cc1ccc(Cl)c(Cl)c1`: the cytotoxicity call in the assay on HSkMC was “inactive”. The growth inhibition call with S. aureus RN4220 is “inactive”.
As to `C[C@@H]1CN([C@@H](C)CO)C(=O)c2cc(NC(=O)CCC(F)(F)F)ccc2O[C@@H](C)CCCCO[C@H]1CN(C)Cc1ccc2c(c1)OCO2`, in the assay on HSkMC, the cytotoxicity call was “inactive”. Moreover, the growth inhibition call in the assay on S. aureus RN4220 is “inactive”.
On to `Nc1oncc1-c1ccc(Cl)cc1`, for which the cytotoxicity call in the assay with HSkMC is “inactive”. Also, the growth inhibition call in the assay with S. aureus RN4220 is “inactive”.
Consider `O=c1[nH][n+](-c2ccccc2)no1`, for which the cytotoxicity call in the assay on HSkMC was “inactive”. The growth inhibition call in the assay on S. aureus RN4220 is “inactive”.
Consider `C[C@H](CO)N1C[C@H](C)[C@H](CN(C)S(=O)(=O)c2cccs2)OCCCC[C@H](C)Oc2ccc(NC(=O)Nc3ccc(F)cc3)cc2C1=O`, for which, in the assay on HSkMC, the cytotoxicity call was “inactive”. For the same compound, the growth inhibition call in the assay on S. aureus RN4220 was “inactive”.
Regarding `CCS(=O)(=O)Nc1ccc2c(c1)C(=O)N(C)[C@@H]1CC[C@H](CC(=O)N3CCN(C)CC3)O[C@@H]1CO2`, the cytotoxicity call in the assay on HSkMC is “inactive”. Also, the growth inhibition call in the assay on S. aureus RN4220 was “inactive”.
Turning to `C[N+](C)(C)CCCCNC(=O)[C@@H]1C[C@@H]2C(=O)N3CCC[C@H]3C(=O)N2[C@@H]1c1cccc(OCCO)c1`, in the assay on HSkMC, the cytotoxicity call is “inactive”. In addition, the growth inhibition call in the assay on S. aureus RN4220 is “inactive”.
Turning to `C[C@@H]1CN([C@@H](C)CO)S(=O)(=O)c2ccc(Br)cc2O[C@H]1CN(C)C(=O)C1CCCCC1`, in the assay with HSkMC, the cytotoxicity call is “inactive”. In the assay on S. aureus RN4220, the growth inhibition call was “inactive”.
On to `C[C@@H]1CN([C@@H](C)CO)C(=O)Cc2cc(NC(=O)Nc3ccc(F)cc3)ccc2O[C@@H]1CN(C)Cc1ccc(Oc2ccccc2)cc1`, for which the cytotoxicity call in the assay on HSkMC was “inactive”. In the assay with S. aureus RN4220, the growth inhibition call is “inactive”.
Turning to `CNC(=O)CN1CCO[C@H]2CN(C(=O)C(C)C)C[C@@H]21`, the cytotoxicity call in the assay with HSkMC is “inactive”. Further, in the assay with S. aureus RN4220, the growth inhibition call was “inactive”.
For the compound `CCc1ccc(NC(=N)N=C(N)N)cc1`, the cytotoxicity call with HSkMC is “inactive”. Also, the growth inhibition call with S. aureus RN4220 was “inactive”.
`COc1ccc(S(=O)(=O)Nc2cccc3c2O[C@H](CN(C)S(=O)(=O)c2ccccc2)[C@@H](C)CN([C@@H](C)CO)C3=O)cc1`: the cytotoxicity call with HSkMC was “inactive”. Besides, in the assay with S. aureus RN4220, the growth inhibition call is “inactive”.
For the compound `CCOC(=O)[C@H](C(C)=O)[C@H]1CCS(=O)(=O)C1`, in the assay with HSkMC, the cytotoxicity call was “inactive”. In the assay with S. aureus RN4220, the growth inhibition call is “inactive”.
Regarding `C[C@H](CO)N1C[C@H](C)[C@H](CN(C)Cc2ccc(C(=O)Nc3ccccc3N)cc2)Oc2c(NS(C)(=O)=O)cccc2C1=O`, the cytotoxicity call with HSkMC was “inactive”. In addition, the growth inhibition call in the assay on S. aureus RN4220 is “inactive”.
Regarding `C[C@H](CO)N1C[C@H](C)[C@H](CN(C)C(=O)Cc2ccccc2)OCCCC[C@H](C)Oc2ccc(NS(=O)(=O)c3ccc(Cl)cc3)cc2C1=O`, in the assay on HSkMC, the cytotoxicity call is “inactive”. In addition, the growth inhibition call with S. aureus RN4220 was “inactive”.
In the case of `C[C@@H](NC(=O)c1ccccc1)C(=O)NN`, the cytotoxicity call in the assay with HSkMC is “inactive”. Also, the growth inhibition call in the assay on S. aureus RN4220 is “inactive”.
Regarding `C[C@H](CO)N1C[C@H](C)[C@@H](CN(C)S(=O)(=O)c2ccc(Cl)cc2)Oc2ccc(NC(=O)CCN3CCOCC3)cc2CC1=O`, in the assay on HSkMC, the cytotoxicity call is “inactive”. Further, in the assay with S. aureus RN4220, the growth inhibition call is “inactive”.
Consider `COc1ccc(NC(=O)Nc2ccc3c(c2)C(=O)N([C@@H](C)CO)C[C@H](C)[C@H](CN(C)Cc2ccc(-c4ccccc4)cc2)O3)cc1`, for which the cytotoxicity call with HSkMC is “inactive”. Besides, the growth inhibition call with S. aureus RN4220 is “inactive”.
Regarding `COc1ccc(NC(=O)Nc2ccc3c(c2)C(=O)N([C@H](C)CO)C[C@@H](C)[C@@H](CN(C)C(=O)c2ccccc2)OCCCC[C@H](C)O3)cc1`, in the assay with HSkMC, the cytotoxicity call was “inactive”. Besides, the growth inhibition call in the assay on S. aureus RN4220 was “inactive”.
For the compound `O=C(NCc1nc2ccccc2[nH]1)C1=C[C@H](c2ccc(Br)cc2)C[C@H](OCc2ccc(CO)cc2)O1`, the cytotoxicity call in the assay with HSkMC is “inactive”. In addition, in the assay with S. aureus RN4220, the growth inhibition call is “inactive”.
On to `C[C@H](CO)N1C[C@H](C)[C@H](CN(C)S(=O)(=O)c2ccccc2)Oc2ccc(NC(=O)c3ccncc3)cc2C1=O`, for which the cytotoxicity call in the assay on HSkMC is “inactive”. In addition, the growth inhibition call in the assay on S. aureus RN4220 is “inactive”.
For `N[C@@H]1CC[C@@H](CCn2cc(-c3ccccn3)nn2)O[C@H]1CO`, the cytotoxicity call with HSkMC is “inactive”. Also, the growth inhibition call with S. aureus RN4220 is “inactive”.
Regarding `C[C@H](CO)N1C[C@H](C)[C@@H](CN(C)Cc2ccc(C(=O)Nc3ccccc3N)cc2)Oc2c(NS(=O)(=O)c3ccc(Cl)cc3)cccc2C1=O`, the cytotoxicity call with HSkMC is “inactive”. The growth inhibition call in the assay on S. aureus RN4220 was “inactive”.
Turning to `Cc1noc(C)c1NC(=O)Nc1ccc2c(c1)C(=O)N([C@H](C)CO)C[C@H](C)[C@H](CN(C)Cc1ccc(Cl)c(Cl)c1)OCCCC[C@@H](C)O2`, the cytotoxicity call in the assay on HSkMC was “inactive”. Further, the growth inhibition call in the assay on S. aureus RN4220 was “inactive”.
For the compound `COc1ccc(CN2C[C@H](C)[C@@H](OC)CN(C)C(=O)c3cc(NC(=O)c4nc5ccccc5s4)ccc3OC[C@@H]2C)cc1`, the cytotoxicity call in the assay on HSkMC is “inactive”. Besides, the growth inhibition call with S. aureus RN4220 was “inactive”.
In the case of `C[C@@H]1CN([C@@H](C)CO)C(=O)c2cc(NC(=O)C3CCCCC3)ccc2O[C@@H](C)CCCCO[C@@H]1CN(C)CC1CCCCC1`, in the assay on HSkMC (human skeletal muscle cells), the cytotoxicity call is “inactive”. Also, the growth inhibition call with S. aureus RN4220 is “inactive”.
